Experimental data: US20090186900A1, “COMPOUND” (priority 2006, published 2009)
At least one read-out could not be matched to a standard name with certainty.

Biological target: T1, 17β-HSD1 (Homo sapiens, UniProt P14061)
T1 construct: Assay of 17β-hydroxysteroid Dehydrogenase Activity in T-47D Cells (E1→E2); endogenous in cells; host or cells: T-47D human breast cancer cells
T1 sequence (P14061 1-328): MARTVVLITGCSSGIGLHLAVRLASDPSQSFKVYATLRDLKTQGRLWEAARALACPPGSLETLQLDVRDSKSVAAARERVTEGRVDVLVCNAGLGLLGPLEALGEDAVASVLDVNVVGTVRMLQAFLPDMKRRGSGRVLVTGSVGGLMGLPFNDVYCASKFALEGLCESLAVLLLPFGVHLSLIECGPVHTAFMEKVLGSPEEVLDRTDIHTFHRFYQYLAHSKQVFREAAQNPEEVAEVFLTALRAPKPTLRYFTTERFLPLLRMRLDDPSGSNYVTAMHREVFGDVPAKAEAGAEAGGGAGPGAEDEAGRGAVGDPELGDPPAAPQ
Experiment: 17β-HSD Type I assay in T-47D cells (E1→E2)
Assay type: cell-based
Details: T-47D human breast cancer cells, screened at 10 μM or 1 μM, sem typically ±5%

Row | Compound | Inhibition of 17β-HSD1
1 | CC(O)c1ccc(-c2ccc3c(c2)OCO3)cc1 (centres unmarked) [Compound 82, 1-(4-Benzo[1,3]dioxol-5-yl-phenyl)-ethanol] | C (Compounds that were tested @ 10 μM and showed <80% inhibition and compounds that were tested @ 1 μM and showed <30% inhibition are designated C)
2 | CC(=O)c1ccc(-c2ccc(O)c(Cl)c2)cc1 [Compound 84, 1-(3′-Chloro-4′-hydroxy-biphenyl-4-yl)-ethanone] | A (Compounds that were tested @ 10 μM and showed >80% inhibition are designated A)
3 | COc1ccc(-c2ccc(C(C)=O)cc2C)cc1 [Compound 86, 1-(4′-Methoxy-2-methyl-biphenyl-4-yl)-ethanone] | C (Compounds that were tested @ 10 μM and showed <80% inhibition and compounds that were tested @ 1 μM and showed <30% inhibition are designated C)
4 | CC(=O)c1ccc(-c2ccc(O)cc2)c(C)c1 [Compound 87, 1-(4′-Hydroxy-2-methyl-biphenyl-4-yl)-ethanone] | C (Compounds that were tested @ 10 μM and showed <80% inhibition and compounds that were tested @ 1 μM and showed <30% inhibition are designated C)
5 | COc1ccc(-c2ccc(C(C)=O)cc2)c(C)c1 [Compound 90, 1-(4′-Methoxy-2′-methyl-biphenyl-4-yl)-ethanone] | C (Compounds that were tested @ 10 μM and showed <80% inhibition and compounds that were tested @ 1 μM and showed <30% inhibition are designated C)
6 | CCc1cc(-c2ccc(O)cc2)ccc1C(C)=O [Compound 94, 1-(3-Ethyl-4′-hydroxy-biphenyl-4-yl)-ethanone] | C (Compounds that were tested @ 10 μM and showed <80% inhibition and compounds that were tested @ 1 μM and showed <30% inhibition are designated C)
7 | CCc1cccc(-c2ccc(O)c(C(C)=O)c2)c1 [Compound 95, 1-(3′-Ethyl-4-hydroxy-biphenyl-3-yl)-ethanone] | C (Compounds that were tested @ 10 μM and showed <80% inhibition and compounds that were tested @ 1 μM and showed <30% inhibition are designated C)
8 | CCc1cc(-c2ccc(OC)cc2)ccc1C(=O)CCC(=O)NCc1cccnc1 [Compound 98, 4-(4′-Methoxy-3-ethyl-biphenyl)-4-oxo-N-pyridin-3-ylmethyl-butyramide] | C (Compounds that were tested @ 10 μM and showed <80% inhibition and compounds that were tested @ 1 μM and showed <30% inhibition are designated C)
9 | CCc1cc(-c2ccc(O)cc2)ccc1C(=O)CCC(=O)NCc1cccnc1 [Compound 99, 4-(4′-Hydroxy-3-ethyl-biphenyl)-4-oxo-N-pyridin-3-ylmethyl-butyramide] | A (Compounds that were tested @ 10 μM and showed >80% inhibition are designated A)
10 | COc1ccc(-c2ccc3c(c2)CCCC3=O)cc1 [Compound 101, 6-(4-Methoxy-phenyl)-3,4-dihydro-2H-naphthalen-1-one] | C (Compounds that were tested @ 10 μM and showed <80% inhibition and compounds that were tested @ 1 μM and showed <30% inhibition are designated C)
11 | O=C1CCCc2cc(-c3ccc(O)cc3)ccc21 [Compound 102, 6-(4-Hydroxy-phenyl)-3,4-dihydro-2H-naphthalen-1-one] | A (Compounds that were tested @ 10 μM and showed >80% inhibition are designated A)
12 | CCOC(=O)CC1CCc2cc(-c3ccc(OC)cc3)ccc2C1=O (centres unmarked) [Compound 103, Ethyl 2-(1,2,3,4-tetrahydro-6-(4-methoxyphenyl)-1-oxonaphthalen-2-yl)acetate] | C (Compounds that were tested @ 10 μM and showed <80% inhibition and compounds that were tested @ 1 μM and showed <30% inhibition are designated C)
13 | COc1ccc(-c2ccc3c(c2)CCC(CC(=O)O)C3=O)cc1 (centres unmarked) [Compound 104, 2-(1,2,3,4-Tetrahydro-6-(4-methoxyphenyl)-1-oxonaphthalen-2-yl)acetic Acid] | C (Compounds that were tested @ 10 μM and showed <80% inhibition and compounds that were tested @ 1 μM and showed <30% inhibition are designated C)
14 | CCc1cc(-c2ccc3c(c2)CCCC3=O)ccc1OC [Compound 105, 6-(3-Ethyl-4-methoxyphenyl)-3,4-dihydro-2H-naphthalen-1-one] | C (Compounds that were tested @ 10 μM and showed <80% inhibition and compounds that were tested @ 1 μM and showed <30% inhibition are designated C)
15 | CCc1cc(-c2ccc3c(c2)CCCC3=O)ccc1O [Compound 106, 6-(3-Ethyl-4-hydroxyphenyl)-3,4-dihydro-2H-naphthalen-1-one] | C (Compounds that were tested @ 10 μM and showed <80% inhibition and compounds that were tested @ 1 μM and showed <30% inhibition are designated C)
16 | COc1ccc(-c2ccc(C(C)=O)cc2)cc1CCc1ccccc1 [Compound 111, 1-(4′-Methoxy-3′-phenethyl-biphenyl-4-yl)-ethanone] | C (Compounds that were tested @ 10 μM and showed <80% inhibition and compounds that were tested @ 1 μM and showed <30% inhibition are designated C)

Row | Compound | Inhibition of 17β-HSD1
17 | COc1cccc(-c2ccc3c(c2)CCCC3=O)c1 [Compound 113, 6-(3-Methoxy-phenyl)-3,4-dihydro-2H-naphthalen-1-one] | C (Compounds that were tested @ 10 μM and showed <80% inhibition and compounds that were tested @ 1 μM and showed <30% inhibition are designated C)
18 | O=C1CCCc2cc(-c3cccc(O)c3)ccc21 [Compound 114, 6-(3-Hydroxy-phenyl)-3,4-dihydro-2H-naphthalen-1-one] | A (Compounds that were tested @ 10 μM and showed >80% inhibition are designated A)
19 | O=C(CCC(=O)c1ccc(Oc2ccc(O)cc2)cc1)NCc1cccnc1 [Compound 118, 4-(4-(4-Hydroxyphenoxy)phenyl)-4-oxo-N-((pyridin-3-yl)methyl)butanamide] | C (Compounds that were tested @ 10 μM and showed <80% inhibition and compounds that were tested @ 1 μM and showed <30% inhibition are designated C)
20 | O=C(CCC(=O)c1ccc(Oc2ccc(O)cc2)cc1)NCCc1cccnc1 [Compound 120, 4-(4-(4-Hydroxyphenoxy)phenyl)-4-oxo-N-(2-(pyridin-3-yl)ethyl)butanamide] | C (Compounds that were tested @ 10 μM and showed <80% inhibition and compounds that were tested @ 1 μM and showed <30% inhibition are designated C)
21 | O=C(CCC(=O)c1ccc(Oc2ccc(O)cc2)cc1)NCCc1ccccn1 [Compound 122, 4-(4-(4-Hydroxyphenoxy)phenyl)-4-oxo-N-(2-(pyridin-2-yl)ethyl)butanamide] | C (Compounds that were tested @ 10 μM and showed <80% inhibition and compounds that were tested @ 1 μM and showed <30% inhibition are designated C)
22 | Oc1ccc(Oc2ccc(-c3cc[nH]n3)cc2)cc1 [Compound 126, 4-(4-(1H-Pyrazol-3-yl)phenoxy)phenol] | C (Compounds that were tested @ 10 μM and showed <80% inhibition and compounds that were tested @ 1 μM and showed <30% inhibition are designated C)
23 | Oc1ccc(Oc2ccc(-c3ccno3)cc2)cc1 [Compound 128, 4-(4-(Isoxazol-5-yl)phenoxy)phenol] | C (Compounds that were tested @ 10 μM and showed <80% inhibition and compounds that were tested @ 1 μM and showed <30% inhibition are designated C)
24 | CC(=O)c1ccc(Oc2ccc(O)cc2)cc1 [Compound 129, 1-(4-(4-Hydroxyphenoxy)phenyl)ethanone] | C (Compounds that were tested @ 10 μM and showed <80% inhibition and compounds that were tested @ 1 μM and showed <30% inhibition are designated C)
25 | Nc1nc(-c2ccc(Oc3ccc(O)cc3)cc2)cs1 [Compound 130, 4-(4-(2-Aminothiazol-4-yl)phenoxy)phenol] | C (Compounds that were tested @ 10 μM and showed <80% inhibition and compounds that were tested @ 1 μM and showed <30% inhibition are designated C)
26 | CC(=O)c1ccc(Oc2ccc(F)cc2)cc1 [Compound 132, 1-(4-(4-Fluorophenoxy)phenyl)ethanone] | C (Compounds that were tested @ 10 μM and showed <80% inhibition and compounds that were tested @ 1 μM and showed <30% inhibition are designated C)
27 | CC(=O)c1ccc(Oc2ccc(F)c(F)c2)cc1 [Compound 133, 1-(4-(3,4-Difluorophenoxy)phenyl)ethanone] | C (Compounds that were tested @ 10 μM and showed <80% inhibition and compounds that were tested @ 1 μM and showed <30% inhibition are designated C)
28 | CC(=O)c1ccc(Oc2ccc(F)c(C)c2)cc1 [Compound 134, 1-(4-(4-Fluoro-3-methylphenoxy)phenyl)ethanone] | C (Compounds that were tested @ 10 μM and showed <80% inhibition and compounds that were tested @ 1 μM and showed <30% inhibition are designated C)
29 | CC(=O)c1ccc(Oc2cccnc2)cc1 [Compound 135, 1-(4-(Pyridin-3-yloxy)phenyl)ethanone] | C (Compounds that were tested @ 10 μM and showed <80% inhibition and compounds that were tested @ 1 μM and showed <30% inhibition are designated C)
30 | CC(=O)c1ccc(Sc2ccc(O)cc2)cc1 [Compound 136] | C (Compounds that were tested @ 10 μM and showed <80% inhibition and compounds that were tested @ 1 μM and showed <30% inhibition are designated C)
31 | CCc1cc(Oc2ccc(C(C)=O)cc2)ccc1OC [Compound 140, 1-(4-(3-Ethyl-4-methoxyphenoxy)phenyl)ethanone] | C (Compounds that were tested @ 10 μM and showed <80% inhibition and compounds that were tested @ 1 μM and showed <30% inhibition are designated C)
32 | CCc1cc(Oc2ccc(C(C)=O)cc2)ccc1O [Compound 141, 1-(4-(3-Ethyl-4-hydroxyphenoxy)phenyl)ethanone] | B (Compounds that were tested @ 1 μM and showed >30% inhibition are designated B)
